Data as given in PubChem BioAssay AID1508623 (National Center for Advancing Translational Sciences (NCATS), 2021).
The campaign covered roughly 48,000 compounds. About 450 (0.94%) were called active. Another 19% or so got no clear call; they are omitted. Calls come from the whole dose curve; as a rule, active = well fitted inhibition curve with a large enough effect; inconclusive = small, poorly fitted or top-dose-only effect; inactive = no such curve, though single readings can be large or run the other way. Some of the results follow.

Assay: Primary qHTS for Identification of Small Molecule Inhibitors of Huntingtin Promoter Activity; note: nearly all actives have a fitted effect of over 50% in size
Conditions: HEK293 HTT promoter firefly luciferase reporter (activity 0% = vehicle and -100% = no light), 24 h; series mostly up to 57.5 µM; activity change, negative = inhibition: at the top concentration
In short: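 Luminescence was read after Dual-Glo reagent and a 10 min room-temperature incubation. Values were normalized to vehicle (0% activity) and zero RLU (-100% activity). Reporter HEK293 cells had been exposed to compounds (up to 57.5 uM final) for 24 h.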

Activity change, negative = inhibition, inactive:
CC(C)Oc1ccc(C(=O)N2CC(=O)Nc3ccc(F)cc3C2c2ccc(F)cc2)cc1 (stereo not given) -26.6%, COCCNc1ncnc2onc(-c3ccc(F)cc3)c12 -6.17%, O=C(O)CCc1ccc(-c2cccs2)n1CC(=O)Nc1ccccc1C(F)(F)F -13.4%, O=C(CSc1nc(-c2ccccc2)nc2c1CCCC2)c1ccc(Cl)cc1 -6.36%, CN1CCN2c3ncccc3Cc3ccccc3C2C1 (stereo not given) -6.97%, CCc1cccc(C)c1NC(=O)C(CC)n1ncn2c(cc3cc(C)ccc32)c1=O (stereo not given) -13%, CCOc1ccc(CNC(=O)c2cnc3sc(N4CCCCCC4)nn3c2=O)cc1OC 11.9%, Cc1ccc(S(=O)(=O)c2nc(S(=O)(=O)c3ccc(C)cc3)c(NC(C)C)s2)cc1 -15.6%, Cc1ccc(C)c(NC(=O)Cn2c(=O)n(Cc3ccc4c(c3)OCO4)c(=O)c3ccc(C(=O)NC4CCCCC4)cc32)c1 2.86%, Cc1ccc2c(c1)CC(C)N2S(=O)(=O)c1nnc(NC(=O)C(C)C)s1 (stereo not given) -17.6%, Cc1cccc(NC(=O)C2CCN(S(=O)(=O)c3ccc4c(c3)CCCC(=O)N4)CC2)c1 -18.4%, CCCNC(=O)C1CCC(Cn2c(=O)c3sccc3n(CC(=O)Nc3ccccc3C)c2=O)CC1 (stereo not given) -3.73%, COc1ccc(-c2cc(C(F)(F)F)nc(SCCC(=O)Nc3cccc(O)c3)n2)cc1 4.14%, Cc1cc(=O)n(CC(=O)Nc2cccc([N+](=O)[O-])c2)c(-n2nc(C)cc2C)n1 -21.9%, CC(NC(=O)c1ccc2nc(Cc3ccccc3)oc2c1)c1ccccc1 (stereo not given) -19.5%, COC(=O)c1c(NC(=O)c2cc3nc(-c4ccc(Br)cc4)cc(C(F)(F)F)n3n2)sc2c1CCCC2 -7.08%, COc1ccc(OC)c(NC(=O)N2CCC(N3CCN(Cc4ccc(F)cc4)C(=O)C3=O)CC2)c1 -21.4%, CCc1ccc(Nc2cc(C(=O)NCCCN(C)c3ccccc3)c3ccccc3n2)cc1 1.35%, COc1ccc(NC(=O)Cn2cc(C(=O)C3CCCCC3)c3ccccc32)cc1 -21.2%, COc1ccc(Cl)cc1NC(=O)N1CCC(CN2CCCCCC2)CC1 -10.5%, Cc1cccc(Cn2cc(C(=O)Nc3ccc(S(N)(=O)=O)cc3)ccc2=O)c1 -1.2%, CCCCNC(=O)CN1C(=O)COc2ccc(S(=O)(=O)N3CCCC3)cc21 -8.28%, COc1ccc(CNC(=O)CN2C(=O)CSc3ccc(S(=O)(=O)N4CCCC4)cc32)cc1 -5.18%, CC1=C(C(=O)OCC2CCCCC2)C(c2ccc(Cl)cc2Cl)CC(=O)N1 (stereo not given) -14.7%, CSc1cccc(NC(=O)Cn2cnc(S(=O)(=O)N3CCCC3)c2)c1 -20.7%, O=C(Nc1ccccc1OCc1cc(=O)n2ccccc2n1)c1ccccc1F 6.81%, CCCn1c2ccccc2c2cnn(CC(=O)NCc3cc(OC)ccc3OC)c(=O)c21 5.53%, COC(=O)c1ccc(Cn2nnc3sc4c(c3c2=O)CCCC4)cc1 26.9%, COc1cc2nc(Nc3ccc(F)cc3)nc(N)c2cc1OC -8.09%, COc1ccc(NC(=O)CN(C)S(=O)(=O)c2cccc3nsnc23)cc1 -6.34%, COC(=O)N/N=C/c1c[n+]([O-])c2ccccc2[n+]1[O-] 7.42%, CCN(CC)c1ccc(NC(=O)c2cc3c(=O)n4cccc(C)c4nc3n2C)c(C)c1 0.0321%, Cc1cc(S(=O)(=O)NCC(c2ccc(N(C)C)cc2)N2CCOCC2)ccc1F (stereo not given) -3.58%, O=C(CSC1=Nc2ccccc2N=C(c2ccc(F)cc2)C1)NCc1ccc(Cl)cc1 -27.3%, CN(C(=O)CN(CCO)CC(=O)N(C)C(C)(C)Cc1ccccc1)C(C)(C)Cc1ccccc1 -10.7%, CCn1nc(C)c2c(-c3ccccc3)cc(=O)n(C(C)C(=O)NCc3ccc(C)cc3)c21 (stereo not given) -23%, CC(=O)c1ccc(NC(=O)c2nc3ccccc3n(C)c2=O)cc1 60.9%, CCCCCNC(=O)CCn1c(=O)[nH]c2ccccc2c1=O -12.8%, Cc1[nH]c(=O)[nH]c(=O)c1S(=O)(=O)N1CCN(c2cccc(Cl)c2)CC1 -1.1%, Cc1ccc(CN(C(=O)COc2ccc(Cl)cc2Cl)C2CCS(=O)(=O)C2)o1 (stereo not given) -17.7%, Cc1ccc(C)c(CN2C(=O)CSc3ccc(C(=O)NCCc4ccc(Cl)cc4)cc32)c1 -10.1%, CCCNC(=O)Cn1nc(-c2ccc(C)c(C)c2)c2cnc3ccc(F)cc3c21 -10.2%, O=C(Nc1cccc(C(F)(F)F)c1)Nc1nnc(N2CCCCC2)s1 3.18%, N#Cc1c(Nc2cccc(F)c2)sc(C(=O)c2ccc(Cl)cc2)c1N 4.05%, CCN(c1ccccc1)S(=O)(=O)c1ccc2[nH]cc(C(=O)NCc3ccc(C)cc3)c(=O)c2c1 -0.326%, Cc1cc(C)nc(NS(=O)(=O)c2ccc(N)cc2)n1 5.83%, COc1ccc(N2CC(NC(=O)c3ccc(OC(C)C)cc3)CC2=O)cc1 (stereo not given) -13.9%, COc1ccccc1CNC(=O)CN1C(=O)CCn2nc(-c3ccccc3)cc21 -20.7%, Cc1ccc(OCC(=O)Nc2ccc3nc(Nc4cccc(Cl)c4)cc(C)c3c2)cc1 -3.17%, CCc1ccccc1NC(=O)Nc1cc(C(=O)NCc2ccc(OC)cc2)ccc1N1CCCC1 -7.59%, Cc1noc(C)c1S(=O)(=O)N1CCCC(C(=O)Nc2ccc(C(C)C)cc2)C1 (stereo not given) 3.28%, O=C(c1ccccc1)n1nc(-c2ccco2)nc1NCc1ccccc1Cl -0.923%, COc1cc(NS(=O)(=O)c2ccc(N)cc2)ncn1 4.44%, CCOc1ccc(CCNC(=O)C2CCC(CNS(=O)(=O)c3ccc(Cl)cc3)CC2)cc1OCC (stereo not given) -20.6%, COc1cccc(-n2cc(C(=O)Nc3cc(C)c(Cl)cc3OC)c3ccccc3c2=O)c1 -20.9%, CCOc1ccc(CNC(=O)C2CCN(c3nn4c(=O)cc(C)nc4s3)CC2)cc1 -14.9%, CO[C@H]1C=CO[C@@]2(C)Oc3c(C)c(O)c4c(O)c(c(C=NN5CCN(C)CC5)c(O)c4c3C2=O)NC(=O)C(C)=CC=C[C@H](C)[C@H](O)[C@@H](C)[C@@H](O)[C@@H](C)[C@H](OC(C)=O)[C@H]1C -4.23% [at 19.1 µM], CC1(C)O[C@@H]2C[C@H]3[C@@H]4C[C@H](F)C5=CC(=O)C=C[C@]5(C)[C@@]4(F)[C@@H](O)C[C@]3(C)[C@]2(C(=O)CO)O1 7.82%, CCOCCCNC(=O)c1cc2c(=O)[nH]c3ccccc3c2n1C 8.18%, CCCCOC(=O)c1ccc(Nc2nnc(-n3nc(C)cc3C)c3ccccc23)cc1 -23.1%
